# Measurements as given in the supplement of paper PMC9446081.
# The whole screen tested about 39,000 compounds, of which about 220 (0.56%) showed activity. The list shows a part of the results.
# System: Escherichia coli K-12 BW25113
# Assay: relative growth (OD600 normalised to plate interquartile mean) (fraction); higher = less growth inhibition, active = 0.2 or less
# Settings: 50 µM; LB; incubation time: overnight (16-24 h)
# 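Note: static incubation at 37 °C against the wild-type strain, values averaged over two biological replicates.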
row,SMILES,relative growth
1,C[C@@H]1CN([C@@H](C)CO)C(=O)c2cc(NS(=O)(=O)c3ccc(Cl)cc3)ccc2O[C@@H](C)CCCCO[C@@H]1CN(C)C(=O)Nc1ccc(C(F)(F)F)cc1,inactive: 1
2,C[C@@H]1CN([C@H](C)CO)C(=O)c2cc(NS(=O)(=O)c3ccc(Cl)cc3)ccc2O[C@@H](C)CCCCO[C@@H]1CN(C)Cc1ccncc1,inactive: 0.979
3,Cc1ccc(S(=O)(=O)Nc2ccc3c(c2)C(=O)N([C@H](C)CO)C[C@H](C)[C@H](CN(C)C(=O)Nc2ccc(C(F)(F)F)cc2)O3)cc1,inactive: 0.994
4,COc1ccc(NC(=O)N(C)C[C@H]2Oc3ccc(NC(=O)Nc4cccc5ccccc45)cc3C(=O)N([C@H](C)CO)C[C@H]2C)cc1,inactive: 0.974
5,CN(C)CC(=O)N1CC(=O)N2[C@H](C1)[C@H](c1ccc(C#Cc3cccnc3)cc1)[C@@H]2CO,inactive: 0.972
6,COc1ccc(CN(C)C[C@@H]2OCCCC[C@H](C)Oc3ccc(NC(=O)Cc4ccccc4)cc3C(=O)N([C@H](C)CO)C[C@@H]2C)cc1,inactive: 0.996
7,C[C@H]1CCCCO[C@@H](CN(C)Cc2ccc(C(F)(F)F)cc2)[C@@H](C)CN([C@@H](C)CO)C(=O)c2cc(NC(=O)Nc3ccc(F)cc3)ccc2O1,inactive: 1.04
8,COc1ccccc1CN1C[C@@H](C)[C@H](OC)CN(C)C(=O)c2cc(NC(=O)Nc3ccccc3OC)ccc2OC[C@H]1C,inactive: 1
9,C[C@@H]1CCCCO[C@H](CN(C)C(=O)Nc2ccc3c(c2)OCO3)[C@H](C)CN([C@@H](C)CO)C(=O)c2cc(NC(=O)c3ccncc3)ccc2O1,inactive: 1.01
10,C[C@H]1CN([C@@H](C)CO)S(=O)(=O)c2ccc(-c3ccc(F)cc3)cc2O[C@@H]1CN(C)S(C)(=O)=O,inactive: 1.02
11,COc1ccc(CN(C)C[C@H]2OCCCC[C@H](C)Oc3ccc(NC(=O)Nc4ccc5c(c4)OCO5)cc3C(=O)N([C@H](C)CO)C[C@@H]2C)cc1,inactive: 0.968
12,COCC(=O)N(C)C[C@@H]1Oc2cc(C#C[C@@H](C)O)ccc2S(=O)(=O)N([C@@H](C)CO)C[C@H]1C,inactive: 0.97
13,C[C@@H](N)c1ccc(C(=O)Nc2ccnc3[nH]ccc23)cc1,inactive: 1.01
14,C[C@H](O)C1=C[C@]2(CC[C@@H]3C(C(=O)O)=CO[C@@H](O[C@@H]4O[C@H](CO)[C@@H](O)[C@H](O)[C@H]4O)[C@@H]32)OC1=O,inactive: 0.947
15,COc1ccc(CN(C)C[C@@H]2OCCCC[C@@H](C)Oc3ccc(NC(=O)Cc4ccccc4)cc3C(=O)N([C@@H](C)CO)C[C@@H]2C)cc1,inactive: 0.983
16,CC(C)NC(=O)N(C)C[C@@H]1Oc2ccc(NC(=O)NC3CCCCC3)cc2CC(=O)N([C@H](C)CO)C[C@H]1C,inactive: 1.01
17,C[C@H](CO)N1C[C@H](C)[C@@H](CN(C)S(=O)(=O)c2cccs2)Oc2ccc(NC(=O)c3ccncc3)cc2C1=O,inactive: 0.994
18,Cc1c(OCC(F)(F)F)ccnc1CS(=O)c1nc2ccccc2[nH]1 (stereo not drawn),inactive: 0.964
19,C[C@H]1CN([C@@H](C)CO)C(=O)Cc2cc(NC(=O)NC3CCCCC3)ccc2O[C@H]1CN(C)S(=O)(=O)c1cn(C)cn1,inactive: 0.985
20,C[C@@H]1CCCCO[C@@H](CN(C)C(=O)NC2CCCCC2)[C@@H](C)CN([C@H](C)CO)C(=O)c2cc(NC(=O)Nc3ccc(C(F)(F)F)cc3)ccc2O1,inactive: 1.01

row,SMILES,relative growth
1,C[C@@H]1CCCCO[C@H](CN(C)S(=O)(=O)c2ccc(F)cc2)[C@H](C)CN([C@@H](C)CO)C(=O)c2cc(NS(=O)(=O)c3cn(C)cn3)ccc2O1,inactive: 0.98
2,CO[C@@H]1CN(C)C(=O)c2ccc(NS(=O)(=O)c3cn(C)cn3)cc2OC[C@@H](C)N(CC2CC2)C[C@@H]1C,inactive: 1.05
3,C[C@H]1CN([C@@H](C)CO)C(=O)c2cc(NC(=O)NC3CCCCC3)ccc2O[C@H]1CN(C)S(=O)(=O)c1cn(C)cn1,inactive: 0.994
4,C=CCN1C(=O)[C@@]2(O[C@@H](CCO)[C@H]([Si](C)(C)F)[C@H]2C)c2cc(N3C(=O)c4cccc5cccc3c45)ccc21,inactive: 0.967
5,C[C@@H](Sc1nc2ncnc(N)c2[nH]1)C(=O)O,inactive: 0.932
6,CCOC(=O)C(=O)N(C)CC(OC)OC,inactive: 1
7,Cc1noc(C)c1NC(=O)Nc1ccc2c(c1)CC(=O)N([C@H](C)CO)C[C@@H](C)[C@@H](CN(C)CC1CC1)O2,inactive: 0.982
8,O=C(C[C@H]1C=C[C@H](NC(=O)Nc2cc(F)ccc2F)[C@H](CO)O1)NCCCN1CCOCC1,inactive: 0.99
9,CC(C)NC(=O)Nc1ccc2c(c1)C(=O)N([C@@H](C)CO)C[C@@H](C)[C@@H](CN(C)C(=O)Nc1ccc(C(F)(F)F)cc1)OCCCC[C@H](C)O2,inactive: 1.01
10,COc1cccc(C#Cc2ccc3c(c2)O[C@H](CN(C)S(=O)(=O)c2ccccc2F)[C@H](C)CN([C@@H](C)CO)S3(=O)=O)c1,inactive: 1.03
11,COc1c2ccoc2nc2c(OC)c(OCC(O)C(C)(C)O)ccc12 (stereo not drawn),inactive: 1.02
12,C[C@@H]1CN([C@H](C)CO)C(=O)c2cc(NC(=O)c3ccncc3)ccc2O[C@@H]1CN(C)S(=O)(=O)c1ccc(F)cc1,inactive: 0.985
13,Cc1noc(C)c1NC(=O)N(C)C[C@@H]1OCCCC[C@@H](C)Oc2ccc(NS(=O)(=O)c3ccc(F)cc3)cc2C(=O)N([C@H](C)CO)C[C@@H]1C,inactive: 1.02
14,COc1ccc(-c2cnc3c(c2)C(=O)N([C@H](C)CO)C[C@H](C)[C@H](CN(C)S(=O)(=O)c2ccc(C#N)cc2)O3)cc1,inactive: 0.977
15,C[C@@H]1CN([C@@H](C)CO)C(=O)Cc2cc(NC(=O)Cn3cnnn3)ccc2O[C@@H]1CN(C)C(=O)Nc1cccc2ccccc12,inactive: 0.993
16,Cn1cnc(S(=O)(=O)N[C@H]2C=C[C@@H](CC(=O)N3CCN(c4ccccc4)CC3)O[C@@H]2CO)c1,inactive: 1
17,CC(C)NC(=O)N[C@@H]1C=C[C@H](CC(=O)O)O[C@H]1CO,inactive: 0.989
18,O=C(NCCc1ccccc1)c1nnc[nH]1,inactive: 0.987
19,COCC(=O)Nc1ccc2c(c1)OC[C@H](C)N(C(=O)c1ccccc1F)C[C@@H](C)[C@@H](OC)CN(C)C2=O,inactive: 1
20,O=C(CCCCCNC(=O)OCc1ccc(CO[C@H]2C[C@@H](c3ccc(C(F)(F)F)cc3)C=C(C(=O)N3CCN(Cc4ccccc4)CC3)O2)cc1)NO,inactive: 0.983

row,SMILES,relative growth
1,Cc1ccc(S(=O)(=O)Nc2ccc3c(c2)CC(=O)N([C@H](C)CO)C[C@H](C)[C@@H](CN(C)C(=O)Nc2ccc(C(F)(F)F)cc2)O3)cc1,inactive: 0.993
2,C[C@@H]1CN([C@H](C)CO)C(=O)c2cc(NC(=O)C3CCCCC3)ccc2O[C@H]1CN(C)C(=O)Nc1ccc(C(F)(F)F)cc1,inactive: 0.987
3,C[C@@H]1CN([C@H](C)CO)C(=O)c2cc(NS(=O)(=O)c3cccs3)ccc2O[C@@H]1CN(C)S(=O)(=O)c1ccccc1,inactive: 0.985
4,CC(C)NC(=O)Nc1ccc2c(c1)C(=O)N([C@@H](C)CO)C[C@@H](C)[C@H](CN(C)C(=O)Nc1ccc3c(c1)OCO3)O2,inactive: 0.995
5,C[C@@H]1CCCCO[C@@H](CN(C)C(=O)c2ccccc2)[C@@H](C)CN([C@H](C)CO)C(=O)c2cc(NC(=O)Nc3cccc4ccccc34)ccc2O1,inactive: 1.01
6,C[C@H]1CN([C@@H](C)CO)C(=O)c2cc(NC(=O)Cn3cnnn3)ccc2O[C@H]1CN(C)C(=O)Nc1cccc2ccccc12,inactive: 0.992
7,COc1ccc(NC(=O)Nc2cccc3c2O[C@H](CN(C)S(C)(=O)=O)[C@H](C)CN([C@H](C)CO)C3=O)cc1,inactive: 1.03
8,COc1cc([C@@H](O)CO)ccc1OS(=O)(=O)O,inactive: 1.02
9,COc1ccc(CN(C)C[C@H]2OCCCC[C@H](C)Oc3ccc(NC(=O)Nc4ccc(F)cc4)cc3C(=O)N([C@@H](C)CO)C[C@@H]2C)cc1,inactive: 0.99
10,CC(C)NC(=O)N(C)C[C@@H]1Oc2c(NS(=O)(=O)c3cccs3)cccc2C(=O)N([C@H](C)CO)C[C@@H]1C,inactive: 0.971
11,C[C@@H]1CN([C@H](C)CO)C(=O)c2cc(NS(=O)(=O)c3ccccc3)ccc2O[C@@H](C)CCCCO[C@@H]1CN(C)Cc1ccc2c(c1)OCO2,inactive: 0.997
12,Cc1noc(C)c1S(=O)(=O)Nc1ccc2c(c1)C(=O)N([C@H](C)CO)C[C@@H](C)[C@H](CN(C)Cc1ccc(-c3ccccc3)cc1)O2,inactive: 0.957
13,O=C(C[C@H]1CC[C@H]2[C@@H](COC[C@@H](O)CN2S(=O)(=O)c2cccc(Cl)c2)O1)NCc1ccc2c(c1)OCO2,inactive: 1
14,CO[C@@H]1CN(C)C(=O)c2ccc(NC(=O)Nc3ccc(Cl)cc3)cc2OC[C@@H](C)N(C(=O)Nc2c(C)noc2C)C[C@H]1C,inactive: 0.954
15,C[C@H]1CN([C@@H](C)CO)C(=O)c2cc(NC(=O)CCN3CCOCC3)ccc2O[C@H]1CN(C)S(C)(=O)=O,inactive: 0.992
16,C[C@H](CO)N1C[C@H](C)[C@H](CN(C)C(=O)Nc2ccc(C(F)(F)F)cc2)Oc2ncc(C#C[C@@H](C)O)cc2C1=O,inactive: 0.997
17,CC(C)C#Cc1ccc2c(c1)O[C@@H](CN(C)C(=O)Cc1ccccn1)[C@@H](C)CN([C@H](C)CO)S2(=O)=O,inactive: 1.01
18,CC(C)NC(=O)Nc1ccc2c(c1)C(=O)N([C@H](C)CO)C[C@H](C)[C@@H](CN(C)S(=O)(=O)c1cccs1)O2,inactive: 1
